Single values are uncertain, as repeats are few or missing.
What was measured:
CHO-K1 [1] = test: hypodiploid nuclei frequency (% of nucleated events); higher = more hypodiploid events (aneugenic)
Protocol: (§1)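 Flow-cytometric in vitro micronucleus assay (Litron MicroFlow) in CHO-K1 cells in 96-well plates, 19 concentrations (4.5-200 µM, n=1 per concentration). Without S9, cells were exposed for 24 h and sampled at 48 h. With Aroclor 1254-induced rat liver S9, cells were exposed for 3-4 h and sampled at 27-28 h. Read-outs are %MN and %hypodiploid nuclei relative to nucleated events, and relative survival as the nuclei-to-bead ratio versus the 1% DMSO vehicle control (x100).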

CHO-K1 [2] = test: relative survival (nuclei to bead ratio vs DMSO control) (% of vehicle control); higher = more surviving cells
Protocol: as §1

CHO-K1 [3] = test: micronucleus frequency (% of nucleated events); higher = more micronuclei (genotoxic)
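For hypodiploid nuclei frequency (% of nucleated events) in this document: hypodiploid nuclei gated on a flow cytometer with 488 nm excitation after SYTOX Green staining, cultures at 37 °C, positive controls vinblastine without S9 and cyclophosphamide with S9.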
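For micronucleus frequency (% of nucleated events) in this document: cells lysed with nuclei stained by SYTOX Green, then micronucleus-gated events counted against nucleated events by flow cytometry with 488 nm excitation.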
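For relative survival (nuclei to bead ratio vs DMSO control) in this document: Lysed-cell nuclei stained with SYTOX Green and counted against counting beads by flow cytometry at 488 nm excitation, with vinblastine (no S9) and cyclophosphamide (plus S9) as positive controls.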

CCOC(=O)c1ccc(O)cc1 [Ethylparaben]
Conditions	hypodiploid nuclei frequency, CHO-K1 [1] [%]	micronucleus frequency, CHO-K1 [3] [%]	relative survival, CHO-K1 [2]
concentration: 4.5 (µM), S9 metabolic activation: with S9, exposure time: 3-4 hours	0.22	1.32	90.2
concentration: 4.5 (µM), S9 metabolic activation: without S9, exposure time: 24 hours	0.54	1.56	116
concentration: 5.63 (µM), S9 metabolic activation: with S9, exposure time: 3-4 hours	0.32	1.62	88.5
concentration: 5.63 (µM), S9 metabolic activation: without S9, exposure time: 24 hours	0.64	1.52	95.5
concentration: 7.04 (µM), S9 metabolic activation: with S9, exposure time: 3-4 hours	0.4	1.9	82.7
concentration: 7.04 (µM), S9 metabolic activation: without S9, exposure time: 24 hours	0.64	1.52	118
concentration: 8.8 (µM), S9 metabolic activation: with S9, exposure time: 3-4 hours	0.34	1.82	109
concentration: 8.8 (µM), S9 metabolic activation: without S9, exposure time: 24 hours	0.5	1.5	111
concentration: 11 (µM), S9 metabolic activation: with S9, exposure time: 3-4 hours	0.26	1.64	92.6
concentration: 11 (µM), S9 metabolic activation: without S9, exposure time: 24 hours	0.54	1.96	131
concentration: 13.7 (µM), S9 metabolic activation: with S9, exposure time: 3-4 hours	0.34	1.98	107
concentration: 13.7 (µM), S9 metabolic activation: without S9, exposure time: 24 hours	0.5	1.78	138
concentration: 17.2 (µM), S9 metabolic activation: with S9, exposure time: 3-4 hours	0.44	2.12	111
concentration: 17.2 (µM), S9 metabolic activation: without S9, exposure time: 24 hours	0.8	1.82	129
concentration: 21.5 (µM), S9 metabolic activation: with S9, exposure time: 3-4 hours	0.32	1.28	119
concentration: 21.5 (µM), S9 metabolic activation: without S9, exposure time: 24 hours	0.7	1.44	123
concentration: 26.8 (µM), S9 metabolic activation: with S9, exposure time: 3-4 hours	0.46	1.18	91.8
concentration: 26.8 (µM), S9 metabolic activation: without S9, exposure time: 24 hours	0.58	1.98	107
concentration: 33.6 (µM), S9 metabolic activation: with S9, exposure time: 3-4 hours	0.2	1.2	90.2
concentration: 33.6 (µM), S9 metabolic activation: without S9, exposure time: 24 hours	0.46	1.38	101
concentration: 41.9 (µM), S9 metabolic activation: with S9, exposure time: 3-4 hours	0.32	1.1	94.7
concentration: 41.9 (µM), S9 metabolic activation: without S9, exposure time: 24 hours	0.52	1.88	97.1
concentration: 52.4 (µM), S9 metabolic activation: with S9, exposure time: 3-4 hours	0.44	1.66	104
concentration: 52.4 (µM), S9 metabolic activation: without S9, exposure time: 24 hours	0.96	2.5	107
concentration: 65.5 (µM), S9 metabolic activation: with S9, exposure time: 3-4 hours	0.34	1.26	99.1
concentration: 65.5 (µM), S9 metabolic activation: without S9, exposure time: 24 hours	0.78	2.46	109
concentration: 81.9 (µM), S9 metabolic activation: with S9, exposure time: 3-4 hours	0.34	1.46	119
concentration: 81.9 (µM), S9 metabolic activation: without S9, exposure time: 24 hours	0.74	1.84	117
concentration: 102 (µM), S9 metabolic activation: with S9, exposure time: 3-4 hours	0.38	1.54	109
concentration: 102 (µM), S9 metabolic activation: without S9, exposure time: 24 hours	0.72	2.08	101
concentration: 128 (µM), S9 metabolic activation: with S9, exposure time: 3-4 hours	0.32	1.64	128
concentration: 128 (µM), S9 metabolic activation: without S9, exposure time: 24 hours	1.1	1.96	116
concentration: 160 (µM), S9 metabolic activation: with S9, exposure time: 3-4 hours	0.28	1.42	142
concentration: 160 (µM), S9 metabolic activation: without S9, exposure time: 24 hours	1.02	2.16	90.3
concentration: 200 (µM), S9 metabolic activation: with S9, exposure time: 3-4 hours	0.36	1.5	117
concentration: 200 (µM), S9 metabolic activation: without S9, exposure time: 24 hours	1.26	2.16	95.5

CN(C)c1ccc(N=NS(=O)(=O)O)cc1 [Fenaminosulf]
Conditions	hypodiploid nuclei frequency, CHO-K1 [1] [%]	micronucleus frequency, CHO-K1 [3] [%]	relative survival, CHO-K1 [2]
concentration: 4.5 (µM), S9 metabolic activation: with S9, exposure time: 3-4 hours	0.48	2.48	126
concentration: 4.5 (µM), S9 metabolic activation: without S9, exposure time: 24 hours	0.94	1.86	108
concentration: 5.63 (µM), S9 metabolic activation: with S9, exposure time: 3-4 hours	0.42	1.9	130
concentration: 5.63 (µM), S9 metabolic activation: without S9, exposure time: 24 hours	0.9	1.62	97.3
concentration: 7.04 (µM), S9 metabolic activation: with S9, exposure time: 3-4 hours	0.2	1.96	140
concentration: 7.04 (µM), S9 metabolic activation: without S9, exposure time: 24 hours	0.94	1.74	101
concentration: 8.8 (µM), S9 metabolic activation: with S9, exposure time: 3-4 hours	0.36	1.94	132
concentration: 8.8 (µM), S9 metabolic activation: without S9, exposure time: 24 hours	1.1	1.94	128
concentration: 11 (µM), S9 metabolic activation: with S9, exposure time: 3-4 hours	0.3	1.92	118
concentration: 11 (µM), S9 metabolic activation: without S9, exposure time: 24 hours	0.9	1.8	96.9
concentration: 13.7 (µM), S9 metabolic activation: with S9, exposure time: 3-4 hours	0.4	2.02	117
concentration: 13.7 (µM), S9 metabolic activation: without S9, exposure time: 24 hours	1.06	1.9	96.1
concentration: 17.2 (µM), S9 metabolic activation: with S9, exposure time: 3-4 hours	0.52	1.96	135
concentration: 17.2 (µM), S9 metabolic activation: without S9, exposure time: 24 hours	0.86	2.08	119
concentration: 21.5 (µM), S9 metabolic activation: with S9, exposure time: 3-4 hours	0.46	1.8	119
concentration: 21.5 (µM), S9 metabolic activation: without S9, exposure time: 24 hours	0.92	1.84	96.1
concentration: 26.8 (µM), S9 metabolic activation: with S9, exposure time: 3-4 hours	0.32	2.24	116
concentration: 26.8 (µM), S9 metabolic activation: without S9, exposure time: 24 hours	1.02	1.98	92.1
concentration: 33.6 (µM), S9 metabolic activation: with S9, exposure time: 3-4 hours	0.3	1.58	107
concentration: 33.6 (µM), S9 metabolic activation: without S9, exposure time: 24 hours	1.78	3.02	91.4
concentration: 41.9 (µM), S9 metabolic activation: with S9, exposure time: 3-4 hours	0.36	2.2	120
concentration: 41.9 (µM), S9 metabolic activation: without S9, exposure time: 24 hours	1.62	3.12	85.5
concentration: 52.4 (µM), S9 metabolic activation: with S9, exposure time: 3-4 hours	0.16	1.86	106
concentration: 52.4 (µM), S9 metabolic activation: without S9, exposure time: 24 hours	1.62	3.52	84.8
concentration: 65.5 (µM), S9 metabolic activation: with S9, exposure time: 3-4 hours	0.44	1.76	98.2
concentration: 65.5 (µM), S9 metabolic activation: without S9, exposure time: 24 hours	1.88	3.94	78.1
concentration: 81.9 (µM), S9 metabolic activation: with S9, exposure time: 3-4 hours	0.28	2.12	106
concentration: 81.9 (µM), S9 metabolic activation: without S9, exposure time: 24 hours	1.84	3.64	79.2
concentration: 102 (µM), S9 metabolic activation: with S9, exposure time: 3-4 hours	0.28	1.7	106
concentration: 102 (µM), S9 metabolic activation: without S9, exposure time: 24 hours	2	4.18	76
concentration: 128 (µM), S9 metabolic activation: with S9, exposure time: 3-4 hours	0.1	1.9	105
concentration: 128 (µM), S9 metabolic activation: without S9, exposure time: 24 hours	2.32	3.7	94.9
concentration: 160 (µM), S9 metabolic activation: with S9, exposure time: 3-4 hours	0.28	1.7	103
concentration: 160 (µM), S9 metabolic activation: without S9, exposure time: 24 hours	2.08	4.32	84.8
concentration: 200 (µM), S9 metabolic activation: with S9, exposure time: 3-4 hours	0.14	2.12	101
concentration: 200 (µM), S9 metabolic activation: without S9, exposure time: 24 hours	2.54	4.84	83.9

OC(Cn1cncn1)(Cn1cncn1)c1ccc(F)cc1F [Fluconazole]
Conditions	hypodiploid nuclei frequency, CHO-K1 [1] [%]	micronucleus frequency, CHO-K1 [3] [%]	relative survival, CHO-K1 [2]
concentration: 4.5 (µM), S9 metabolic activation: with S9, exposure time: 3-4 hours	0.28	1.06	136
concentration: 4.5 (µM), S9 metabolic activation: without S9, exposure time: 24 hours	0.66	1.44	103
concentration: 5.63 (µM), S9 metabolic activation: with S9, exposure time: 3-4 hours	0.34	1.34	112
concentration: 5.63 (µM), S9 metabolic activation: without S9, exposure time: 24 hours	0.66	1.7	122
concentration: 7.04 (µM), S9 metabolic activation: with S9, exposure time: 3-4 hours	0.22	1.14	111
concentration: 7.04 (µM), S9 metabolic activation: without S9, exposure time: 24 hours	1.1	2.7	98.9
concentration: 8.8 (µM), S9 metabolic activation: with S9, exposure time: 3-4 hours	0.3	1.14	106
concentration: 8.8 (µM), S9 metabolic activation: without S9, exposure time: 24 hours	0.78	1.82	85.2
concentration: 11 (µM), S9 metabolic activation: with S9, exposure time: 3-4 hours	0.2	1.2	110
concentration: 11 (µM), S9 metabolic activation: without S9, exposure time: 24 hours	0.82	1.86	105
concentration: 13.7 (µM), S9 metabolic activation: with S9, exposure time: 3-4 hours	0.38	1.24	132
concentration: 13.7 (µM), S9 metabolic activation: without S9, exposure time: 24 hours	0.82	1.78	106
concentration: 17.2 (µM), S9 metabolic activation: with S9, exposure time: 3-4 hours	0.14	0.8	96.6
concentration: 17.2 (µM), S9 metabolic activation: without S9, exposure time: 24 hours	0.74	1.82	111
concentration: 21.5 (µM), S9 metabolic activation: with S9, exposure time: 3-4 hours	0.36	0.98	108
concentration: 21.5 (µM), S9 metabolic activation: without S9, exposure time: 24 hours	0.94	1.84	85.2
concentration: 26.8 (µM), S9 metabolic activation: with S9, exposure time: 3-4 hours	0.34	1.3	138
concentration: 26.8 (µM), S9 metabolic activation: without S9, exposure time: 24 hours	0.9	1.34	92.1
concentration: 33.6 (µM), S9 metabolic activation: with S9, exposure time: 3-4 hours	0.24	0.72	129
concentration: 33.6 (µM), S9 metabolic activation: without S9, exposure time: 24 hours	1.02	1.06	95.6
concentration: 41.9 (µM), S9 metabolic activation: with S9, exposure time: 3-4 hours	0.2	1.22	121
concentration: 41.9 (µM), S9 metabolic activation: without S9, exposure time: 24 hours	0.92	1.9	76.1
concentration: 52.4 (µM), S9 metabolic activation: with S9, exposure time: 3-4 hours	0.3	1.28	120
concentration: 52.4 (µM), S9 metabolic activation: without S9, exposure time: 24 hours	1.14	1.42	92.8
concentration: 65.5 (µM), S9 metabolic activation: with S9, exposure time: 3-4 hours	0.26	0.92	111
concentration: 65.5 (µM), S9 metabolic activation: without S9, exposure time: 24 hours	0.6	1.5	66.5
concentration: 81.9 (µM), S9 metabolic activation: with S9, exposure time: 3-4 hours	0.12	0.56	121
concentration: 81.9 (µM), S9 metabolic activation: without S9, exposure time: 24 hours	1.08	1.26	71.3
concentration: 102 (µM), S9 metabolic activation: with S9, exposure time: 3-4 hours	0.2	0.86	111
concentration: 102 (µM), S9 metabolic activation: without S9, exposure time: 24 hours	1.1	1.36	70.6
concentration: 128 (µM), S9 metabolic activation: with S9, exposure time: 3-4 hours	0.3	0.98	108
concentration: 128 (µM), S9 metabolic activation: without S9, exposure time: 24 hours	1.54	1.32	68.9
concentration: 160 (µM), S9 metabolic activation: with S9, exposure time: 3-4 hours	0.36	1.36	117
concentration: 160 (µM), S9 metabolic activation: without S9, exposure time: 24 hours	1.1	1.44	68.1
concentration: 200 (µM), S9 metabolic activation: with S9, exposure time: 3-4 hours	0.32	1.72	107
concentration: 200 (µM), S9 metabolic activation: without S9, exposure time: 24 hours	1.42	2	63.7

Reference: the supplement of paper PMC9151546
